From US20220017635A1

Columns and labels:
[1] = biological target: human EGFR-GST (human) (UniProt P00533); assay: SPR (Biacore T100), KD for human EGFR-GST divided by KD for monkey EGFR-GST
[2] = biological target: human EGFR-GST (human) (UniProt P00533); assay: SPR (Biacore T100), bispecific captured via anti-human IgG, antigen as analyte, single cycle kinetics
[3] = biological target: monkey EGFR-GST (monkey) (UniProt P55245); assay: as above

Human EGFR [nM]/Monkey EGFR [nM] (KD ratio) [1]: 0.87
Kd [2]: 0.13 nM
Kd [3]: 0.15 nM
B1: E08-TfR1071 (bispecific antibody, part only; not given: light constant region, not shown: another chain or arm of the molecule)
heavy: EVQLVESGGGLVQPGGSLRLSCAASGFSFNNNAMNWVRQAPGKGLEWVSGIRADGGTTYYADSVKGRFTISRDNSKNTLYLQMNSLRAEDTAVYFCGKTPDWEIFYYAMDAWGQGTTVTVSSASTKGPSVFPLAPCSRSTSESTAALGCLVKDYFPEPVTVSWNSGALTSGVHTFPAVLQSSGLYSLSSVVTVPSSSLGTKTYTCNVDHKPSNTKVDKRVYVQLVESGGGLVQPGGSLRLSCAASGFSFDKYTMNWVRQAPGKGLEWVSVISNGGVSTDYADSVKGRFTVSRDNSKNTLYLQMNSLRAEDMATYYCARASQPWLYRTGADVWGQGTLVTVSSASTKGPSVFPLAPCSRSTSESTAALGCLVKDYFPEPVTVSWNSGALTSGVHTFPAVLQSSGLYSLSSVVTVPSSSLGTKTYTCNVDHKPSNTKVDKRV[left out - human IgG4 Fc with S228P L235E R409K (EU numbers)]
VL: [left out - about 100 residues]
